{"source": "paper PMC12820563", "note": "This is one part of the list. The list includes weakly bound sequences."}
{"target": "T1, MBP-FoxP3dN (UniProt Q99JB6)", "T1 sequence": "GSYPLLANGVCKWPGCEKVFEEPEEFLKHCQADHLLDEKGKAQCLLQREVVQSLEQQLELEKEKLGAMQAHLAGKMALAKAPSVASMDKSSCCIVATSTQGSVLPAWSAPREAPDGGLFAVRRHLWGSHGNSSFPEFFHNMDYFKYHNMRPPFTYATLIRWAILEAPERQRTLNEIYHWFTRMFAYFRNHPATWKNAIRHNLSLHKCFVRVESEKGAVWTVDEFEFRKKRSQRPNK", "experiment": "PD-seq (MBP pull-down with sequencing)", "details": "20 mM Tris-HCl pH 7.5, 100 mM NaCl, 1.5 mM MgCl2, 0.4 uM protein, 0.1 uM dsDNA library, 30 min, room temperature, amylose pull-down; high values mean tight binding; double strand, one strand shown"}
{"sequence": "GATGATTGTTCTCCCAGCTGATGAATTACGTGTCTCGAGTAAACAAATTTTCCTAATCTTTCTGTTCAAGCGCCATCTAC", "binding signal (RPM ratio (pull-down/input))": 1.3}
{"sequence": "GATGATTGTTCTCCCAGCTGATGAATTGTATTGTTCGAGTAAACAAATTTTCCTAATCTTTCTGTTCAAGCGCCATCTAC", "binding signal (RPM ratio (pull-down/input))": 6.04}
{"sequence": "GATGATTGTTCTCCCAGCTGATGAATTTCTACAATCGAGTAAACAAATTTTCCTAATCTTTCTGTTCAAGCGCCATCTAC", "binding signal (RPM ratio (pull-down/input))": 0.363}
{"sequence": "GATGATTGTTCTCCCAGCTGATGAATTGTTGGCTTCGAGTAAACAAATTTTCCTAATCTTTCTGTTCAAGCGCCATCTAC", "binding signal (RPM ratio (pull-down/input))": 2.27}
{"sequence": "GATGATTGTTCTCCCAGCTGATGAATTTCGGAGATCGAGTAAACAAATTTTCCTAATCTTTCTGTTCAAGCGCCATCTAC", "binding signal (RPM ratio (pull-down/input))": 0.228}
{"sequence": "GATGATTGTTCTCCCAGCTGATGAATTGCATGTCTCGAGTAAACAAATTTTCCTAATCTTTCTGTTCAAGCGCCATCTAC", "binding signal (RPM ratio (pull-down/input))": 1.91}
{"sequence": "GATGATTGTTCTCCCAGCTGATGAATTCAATTCTTCGAGTAAACAAATTTTCCTAATCTTTCTGTTCAAGCGCCATCTAC", "binding signal (RPM ratio (pull-down/input))": 0.609}
{"sequence": "GATGATTGTTCTCCCAGCTGATGAATTTTTGGGCTCGAGTAAACAAATTTTCCTAATCTTTCTGTTCAAGCGCCATCTAC", "binding signal (RPM ratio (pull-down/input))": 0.259}
{"sequence": "GATGATTGTTCTCCCAGCTGATGAATTCGAGTATTCGAGTAAACAAATTTTCCTAATCTTTCTGTTCAAGCGCCATCTAC", "binding signal (RPM ratio (pull-down/input))": 0.977}
{"sequence": "GATGATTGTTCTCCCAGCTGATGAATTTGAGTGCTCGAGTAAACAAATTTTCCTAATCTTTCTGTTCAAGCGCCATCTAC", "binding signal (RPM ratio (pull-down/input))": 0.987}
{"sequence": "GATGATTGTTCTCCCAGCTGATGAATTTTTCTCATCGAGTAAACAAATTTTCCTAATCTTTCTGTTCAAGCGCCATCTAC", "binding signal (RPM ratio (pull-down/input))": 0.274}
{"sequence": "GATGATTGTTCTCCCAGCTGATGAATTTTGCCGCTCGAGTAAACAAATTTTCCTAATCTTTCTGTTCAAGCGCCATCTAC", "binding signal (RPM ratio (pull-down/input))": 2.85}
{"sequence": "GATGATTGTTCTCCCAGCTGATGAATTCCACCTTTCGAGTAAACAAATTTTCCTAATCTTTCTGTTCAAGCGCCATCTAC", "binding signal (RPM ratio (pull-down/input))": 0.35}
{"sequence": "GATGATTGTTCTCCCAGCTGATGAATTGCTGCAATCGAGTAAACAAATTTTCCTAATCTTTCTGTTCAAGCGCCATCTAC", "binding signal (RPM ratio (pull-down/input))": 3.27}
{"sequence": "GATGATTGTTCTCCCAGCTGATGAATTTGCCAAGTCGAGTAAACAAATTTTCCTAATCTTTCTGTTCAAGCGCCATCTAC", "binding signal (RPM ratio (pull-down/input))": 0.252}
{"sequence": "GATGATTGTTCTCCCAGCTGATGAATTGTTAGTGTCGAGTAAACAAATTTTCCTAATCTTTCTGTTCAAGCGCCATCTAC", "binding signal (RPM ratio (pull-down/input))": 4.19}
{"sequence": "GATGATTGTTCTCCCAGCTGATGAATTTTTCGTCTCGAGTAAACAAATTTTCCTAATCTTTCTGTTCAAGCGCCATCTAC", "binding signal (RPM ratio (pull-down/input))": 0.258}
{"sequence": "GATGATTGTTCTCCCAGCTGATGAATTCCCTTAGTCGAGTAAACAAATTTTCCTAATCTTTCTGTTCAAGCGCCATCTAC", "binding signal (RPM ratio (pull-down/input))": 0.242}
{"sequence": "GATGATTGTTCTCCCAGCTGATGAATTTAATGCCTCGAGTAAACAAATTTTCCTAATCTTTCTGTTCAAGCGCCATCTAC", "binding signal (RPM ratio (pull-down/input))": 1.91}
{"sequence": "GATGATTGTTCTCCCAGCTGATGAATTCGATGAATCGAGTAAACAAATTTTCCTAATCTTTCTGTTCAAGCGCCATCTAC", "binding signal (RPM ratio (pull-down/input))": 0.288}
{"sequence": "GATGATTGTTCTCCCAGCTGATGAATTGCGCAAGTCGAGTAAACAAATTTTCCTAATCTTTCTGTTCAAGCGCCATCTAC", "binding signal (RPM ratio (pull-down/input))": 2.55}
{"sequence": "GATGATTGTTCTCCCAGCTGATGAATTCCACGGTTCGAGTAAACAAATTTTCCTAATCTTTCTGTTCAAGCGCCATCTAC", "binding signal (RPM ratio (pull-down/input))": 0.336}
{"sequence": "GATGATTGTTCTCCCAGCTGATGAATTCGGTGCTTCGAGTAAACAAATTTTCCTAATCTTTCTGTTCAAGCGCCATCTAC", "binding signal (RPM ratio (pull-down/input))": 0.937}
{"sequence": "GATGATTGTTCTCCCAGCTGATGAATTTGGCCACTCGAGTAAACAAATTTTCCTAATCTTTCTGTTCAAGCGCCATCTAC", "binding signal (RPM ratio (pull-down/input))": 5}
{"sequence": "GATGATTGTTCTCCCAGCTGATGAATTCGTCATCTCGAGTAAACAAATTTTCCTAATCTTTCTGTTCAAGCGCCATCTAC", "binding signal (RPM ratio (pull-down/input))": 2.04}
{"sequence": "GATGATTGTTCTCCCAGCTGATGAATTCCCCTAATCGAGTAAACAAATTTTCCTAATCTTTCTGTTCAAGCGCCATCTAC", "binding signal (RPM ratio (pull-down/input))": 0.224}
{"sequence": "GATGATTGTTCTCCCAGCTGATGAATTGGCGAGGTCGAGTAAACAAATTTTCCTAATCTTTCTGTTCAAGCGCCATCTAC", "binding signal (RPM ratio (pull-down/input))": 0.318}
{"sequence": "GATGATTGTTCTCCCAGCTGATGAATTACCCAAGTCGAGTAAACAAATTTTCCTAATCTTTCTGTTCAAGCGCCATCTAC", "binding signal (RPM ratio (pull-down/input))": 0.186}
{"sequence": "GATGATTGTTCTCCCAGCTGATGAATTGCCGCTATCGAGTAAACAAATTTTCCTAATCTTTCTGTTCAAGCGCCATCTAC", "binding signal (RPM ratio (pull-down/input))": 1.25}
{"sequence": "GATGATTGTTCTCCCAGCTGATGAATTCGACACTTCGAGTAAACAAATTTTCCTAATCTTTCTGTTCAAGCGCCATCTAC", "binding signal (RPM ratio (pull-down/input))": 0.849}
{"sequence": "GATGATTGTTCTCCCAGCTGATGAATTATTCGTGTCGAGTAAACAAATTTTCCTAATCTTTCTGTTCAAGCGCCATCTAC", "binding signal (RPM ratio (pull-down/input))": 0.459}
